According to paper PMC4336329 (PLoS ONE, 2015):
In all, about 310,000 compounds went through this assay and about 2,200 (0.71%) showed an effect of 50% or more. The effect is printed as a negative number. This is one part of the list.

Target: human ether-à-go-go-related gene (hERG) potassium channel (human, UniProt Q12809)
Experiment: primary screen, population patch clamp on CHO cells stably expressing hERG

Sequence of human ether-à-go-go-related gene (hERG) potassium channel (Q12809 whole entry, looked up): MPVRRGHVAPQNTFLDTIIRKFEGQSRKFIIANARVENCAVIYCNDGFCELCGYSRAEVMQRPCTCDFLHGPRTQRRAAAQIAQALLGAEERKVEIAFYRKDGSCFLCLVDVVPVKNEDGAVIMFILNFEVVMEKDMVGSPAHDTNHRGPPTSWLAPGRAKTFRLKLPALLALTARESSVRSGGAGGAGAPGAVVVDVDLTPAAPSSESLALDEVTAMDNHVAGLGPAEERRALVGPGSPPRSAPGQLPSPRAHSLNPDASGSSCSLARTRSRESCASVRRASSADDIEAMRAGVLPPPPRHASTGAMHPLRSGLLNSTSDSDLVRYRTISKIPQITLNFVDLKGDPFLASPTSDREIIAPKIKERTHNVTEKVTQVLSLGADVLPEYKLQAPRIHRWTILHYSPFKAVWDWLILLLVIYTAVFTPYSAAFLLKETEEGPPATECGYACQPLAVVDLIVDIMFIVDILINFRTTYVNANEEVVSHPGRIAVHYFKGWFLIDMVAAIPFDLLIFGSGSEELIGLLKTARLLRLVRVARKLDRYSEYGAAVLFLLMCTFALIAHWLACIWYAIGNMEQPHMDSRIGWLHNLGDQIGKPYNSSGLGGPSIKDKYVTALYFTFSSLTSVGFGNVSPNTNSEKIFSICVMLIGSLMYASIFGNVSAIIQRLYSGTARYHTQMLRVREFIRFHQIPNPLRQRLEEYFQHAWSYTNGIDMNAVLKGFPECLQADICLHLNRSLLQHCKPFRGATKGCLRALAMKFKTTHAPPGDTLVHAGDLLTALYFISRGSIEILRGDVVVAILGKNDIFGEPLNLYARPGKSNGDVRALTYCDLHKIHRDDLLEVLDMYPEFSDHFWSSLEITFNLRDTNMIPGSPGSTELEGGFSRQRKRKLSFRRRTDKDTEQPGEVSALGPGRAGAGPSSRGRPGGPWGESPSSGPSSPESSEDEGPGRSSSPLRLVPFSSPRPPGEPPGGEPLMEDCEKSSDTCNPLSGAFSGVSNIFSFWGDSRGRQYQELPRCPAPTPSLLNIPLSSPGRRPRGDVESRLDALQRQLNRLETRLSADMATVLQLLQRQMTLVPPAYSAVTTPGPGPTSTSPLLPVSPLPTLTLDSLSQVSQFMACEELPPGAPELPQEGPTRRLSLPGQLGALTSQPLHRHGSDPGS

| SMILES | hERG current change (%, negative = inhibition) at 1uM |
| --- | --- |
| CC(=O)c1c(OC(=O)c2cccc(Cl)c2)c2ccccc2n1C | 10.2% |
| Cc1ccc(C)c2[nH]c(=O)c(CN(Cc3cccs3)C(=S)NCc3ccco3)cc12 | 10.9% |
| COc1ccc(C(=O)NCc2ccc(S(N)(=O)=O)cc2)cc1[N+](=O)[O-] | 13.9% |
| COc1ccccc1-c1ccc(=O)n(CC(=O)NC(C)(C)C)n1 | 13.8% |
| COc1ccc(C(=S)NCS(=O)(=O)c2ccc(C)cc2)cc1 | 7.73% |
| COc1ccc(OC)c(NC(=O)Nc2cc(C(=O)O)ccc2C)c1 | 9.9% |
| CCO[C@H]1OC(C(=O)NCc2nc3ccccc3[nH]2)=C[C@@H](C)[C@@H]1CCCO | 10.7% |
| O=C(CSCc1cnn(-c2ccccc2)c1-n1cccc1)NCc1cccnc1 | 0.0399% |
| CS(=O)(=O)N(CC(=O)N1CCCCCC1)c1ccccc1 | 4.57% |
| CCOC(=O)C1CCN(CCC(=O)Nc2ccc(C)c(C)c2)CC1 | -7.31% |
| CN(CC(=O)Nc1ccccc1Br)C(=O)CCSc1ccc(F)cc1 | 8.65% |
| O=C(NCCNC(=O)c1cc(F)cc(F)c1)c1cc(F)cc(F)c1 | 9.74% |
| COc1ccc(NCc2nnc(SCC(=O)c3ccc(C)cc3)o2)cc1 | 7.48% |
| Cc1c(Cl)cccc1NC(=O)CCN1CCC(C(N)=O)CC1 | 10.7% |
| CCOC(=O)[C@H]1[C@H]2COc3ccc(OC)cc3[C@@H]2N2C(=O)CN(Cc3ccc(OC)cc3)C(=O)[C@@]12C | 8.8% |
| O=C1N=C(N2CCOCC2)S/C1=C\c1ccccc1OS(=O)(=O)c1ccccc1 | 10.6% |
| O=[N+]([O-])c1cccc(S(=O)(=O)NCC2CC3CCC2C3)c1 (centres unmarked) | 10.1% |
| Cc1cccc(C)c1NC(=O)/C(C#N)=C/c1cccs1 | 4.78% |
| CCCCn1c(O)c(C(CC)=NCCc2ccccc2)c(=O)[nH]c1=O | 7.67% |
| Oc1c(Cl)cc(CN2CCOCC2)c2cccnc12 | 8.2% |
| Cn1c(NC(=O)/C=C/c2c(F)cccc2Cl)cc(=O)n(C)c1=O | 15.8% |
| CC(=O)c1cc2c(cc1NC(=O)c1ccc(Cl)cc1)OCCO2 | 18.8% |
| COC(=O)CCC(=O)Nc1cc(Cl)cc(Cl)c1 | 7.59% |

| SMILES | hERG current change (%, negative = inhibition) at 1uM |
| --- | --- |
| Cc1ccc(C(CC(=O)N2CCOCC2)c2ccco2)cc1 (centres unmarked) | 10.6% |
| CCN1C(=O)CSc2ccc(C(=O)OC)cc21 | 7.48% |
| CC1CC(C)CN(C(=O)C(NS(=O)(=O)c2ccc(Br)s2)c2ccccc2)C1 (centres unmarked) | 9.39% |
| Cc1ccc(C2c3sc(=O)[nH]c3SC3C(=O)NC(=O)C32)cc1 (centres unmarked) | 11.2% |
| CCOC(=O)C1=C(COC(=O)C2CC(=O)N(c3ccc(C)cc3)C2)NC(=O)NC1C (centres unmarked) | 6.47% |
| COc1ccc(CN=C(C)c2c(C(F)(F)F)[nH]n(-c3nc4ccccc4s3)c2=O)cc1 | 15% |
| COc1cc(C(=O)OCCN2CCCCC2)ccc1O.Cl | 8.41% |
| COc1cc(NC(=O)c2cccc3c2C(=O)N(Cc2cccnc2)C3)cc(OC)c1OC | -22.7% |
| COc1cccc(/C=C2/Sc3ccc(C(=O)NCCCN4CCCC4)cc3NC2=O)c1 | -20.2% |
| Cl.OC(CN1C2=NCCN2c2ccccc21)c1ccc2c(c1)OCO2 (centres unmarked) | -27.7% |
| COc1ccc(NC(=O)Nc2cnccn2)cc1OC | 8.02% |
| Cc1ccnc(NC(=O)CNC(=O)Cc2cccc3ccccc23)c1 | 12.1% |
| O=C(Nc1ccnn1C1CCN(C2CCCC2)CC1)c1ccccc1Cl | 6.27% |
| O=[N+]([O-])c1cccc(S(=O)(=O)N2CCCCCC2)c1 | 4.41% |
| Cc1cc2c(c(=O)n1Cc1cccnc1)C(c1cccs1)C(C#N)=C(N)O2 (centres unmarked) | 9.61% |
| COc1ccc(OC)c(C2=Nn3c(nnc3-c3cc(C)[nH]n3)SC2)c1 | -1.69% |
| NS(=O)(=O)c1cccc(NC(=O)COC(=O)COc2ccc3ccccc3c2)c1 | 13.5% |
| COc1ccc(CNC(=O)C2CCCN2C(=O)NC2CCCCC2)cc1 (centres unmarked) | -8.68% |
| COc1cccc(N2C(=O)C(CC(=O)Nc3ccc(F)cc3)N(C3CCCCC3)C2=O)c1 (centres unmarked) | -5.88% |
| Cc1ccc(CNC(=O)COC(=O)CSc2ccc(Br)cc2C)cc1 | 2.26% |
| OCC[C@@H]1C[C@@H](O)[C@H](O)[C@@]2(OCCc3ccccc32)O1 | 17% |
| CCCc1cc(=O)[nH]c(SCC(=O)N(CCOC)c2c(N)n(Cc3ccccc3)c(=O)[nH]c2=O)n1 | -0.997% |
| CCOC(=O)c1cnc(SCc2ccc(C)cc2)nc1N | 7.87% |

| SMILES | hERG current change (%, negative = inhibition) at 1uM |
| --- | --- |
| Cc1ccc(C(=O)Nc2cc(Cl)ccc2Oc2ccccc2)cc1[N+](=O)[O-] | 9.15% |
| Cc1ccc(S(=O)(=O)N(C)C)cc1[N+](=O)[O-] | 6.69% |
| O=C(O)CCc1ccc(-c2ccc(Br)cc2)n1-c1ccc(O)cc1 | 14.9% |
| Cc1cc(C)c[n+](-c2[nH]c(=O)sc2/C=N/NC([S-])=Nc2ccccc2)c1 | 7.6% |
| COc1cc(/C=C2/SC(=S)N(CC(=O)O)C2=O)ccc1OCC(=O)Nc1ccc(C)c(C)c1 | -5.45% |
| Cc1c(Cl)cccc1NC(=O)Nc1cc(C(C)(C)C)nn1C | 11.5% |
| CCOc1cc2c3c(c1)C1(OCCO1)C(=O)N3C(C)(C)CC2C (centres unmarked) | 9.26% |
| CCOC(=O)c1sc(NCC2CCCO2)nc1C (centres unmarked) | 14.2% |
| COc1ccc(/C=N/NC(=O)CC(=O)NCCc2ccccc2)cc1OC | 11.1% |
| CCCC[C@@H]1C[C@H]1[C@@H](NC(=O)c1ccco1)c1ccc(Cl)cc1 | 6.22% |
| CCN(CCO)C(=O)C(c1ccccc1)c1ccccc1 | 10.8% |
| C[C@@H]1CN(Cc2nc(-c3cccs3)no2)C[C@H](C)O1 | 13.5% |
| COc1ccc(NC(=O)Nc2ccncc2)c(OC)c1 | 17% |
| CCOC(=O)c1nc(Nc2ccc(N3CCC(C)CC3)cc2)c2ccccc2n1 | 3.91% |
| CCC(C)(C)c1ccc(OCCN2C(=O)NC(C)(C)C2=O)cc1 | 7.01% |
| O=C(CSc1ccc(Cl)cc1)N1CCOCC1 | 5.38% |
| Clc1cc(Cl)cc(Nc2ncnc(-n3cccc3)n2)c1 | 9.45% |
| O=[N+]([O-])c1ccc(SCCO)nc1SCCO | 7.52% |
| Cc1ccc(-n2nnnc2Sc2nc([N+](=O)[O-])nn2C)c(C)c1 | -23.1% |
| CC(C)C(=O)Nc1ccc(NC(=O)CCc2ccccc2)cn1 | 12.4% |
| CCc1nnc(NC(=O)CN2CCN(c3nc(-c4ccccc4)cs3)CC2)s1 | -9.65% |
| N#Cc1cn(-c2ccccc2)nc1-c1ccccc1 | -3.08% |
| Cc1cc(N2CCN(C)CC2)nc2ccc(NC(=S)N3CCN(c4ccc(F)cc4)CC3)cc12 | 0.602% |

| SMILES | hERG current change (%, negative = inhibition) at 1uM |
| --- | --- |
| COC(=O)C1(Cc2cc(-c3ccc(OC)cc3OC)no2)CCN(C(=O)OC(C)(C)C)CC1 | 5.64% |
| CC(=O)N(c1ccc2oc(=O)sc2c1)S(=O)(=O)c1ccccc1 | 11.4% |
| Cc1cc(NC(=O)CSCC(=O)OCc2nnc(-c3ccccc3)o2)no1 | 10.6% |
| COc1ccc(CN2C(=O)C3C4C=CC(C4)C3C2=O)cc1 (centres unmarked) | 8.51% |
| Cc1ccc(-c2nn(-c3ccccc3)cc2/C=N/NC(=O)CSc2nnc(C)n2-c2ccccc2)cc1 | 6.69% |
| CCN(CC(=O)Nc1ccc2c(c1)OCCO2)C(=O)/C=C/c1cccc(Br)c1 | -3.19% |
| Cc1sc2nc(C3CC3)nc(N3CCN(C(=O)c4ccccc4F)CC3)c2c1C.Cl | 17.8% |
| COc1ccc(OC)c(-c2nn(-c3ccccc3)cc2C(=O)NCC(c2ccco2)N2CCCC2)c1 (centres unmarked) | -30.4% |
| COc1cccc(C(=O)N2N=C(c3cccc(OC)c3)CC2(O)C(F)(F)F)c1 (centres unmarked) | 17.9% |
| Br.Cc1ccc(C2=CSC3=NCCN23)c(C)c1 | -1.69% |
| CC1(C)C2SCC(=O)N2CCN1CC(=O)NN (centres unmarked) | 11.7% |
| NC(=O)CN1C(=O)C2C3c4ccccc4C(c4ccccc43)C2C1=O (centres unmarked) | 8.01% |
| CN1CCN(C(=O)c2c(NC(=O)c3ccco3)sc3c2CCC(C(C)(C)C)C3)CC1 (centres unmarked) | -33.3% |
| CN(c1ccc(C(=O)N2CCCCCC2)cc1)S(=O)(=O)c1ccccc1 | 13.8% |
| CCOC(=O)CN1C(=O)CSc2ccc(S(=O)(=O)N3CCOCC3)cc21 | 22.6% |
| OC(Cc1ccncc1)(c1ccccc1)c1ccccc1 | 4.75% |
| COc1ccc(C2C(C(N)=O)=C(C)Nc3nc(CCCO)nn32)cc1OC (centres unmarked) | 15.9% |
| CCN(CC)C(=O)C(=O)Nc1ccc(OCc2ccccc2)cc1 | 11.9% |
| O=C(Cn1cccc1C(=O)c1ccccc1)NCCN1CCOCC1 | 2.13% |
| Cc1onc(-c2c(F)cccc2Cl)c1C(=O)Nc1ccc(Cl)c(S(=O)(=O)N(C)C)c1 | 14.2% |
